At least one structure is not confirmed: it was looked up by name or label, or the drawing left a doubt. Some results were stated once for a whole list of compounds, not compound by compound. *1 amine or outer side, *2 acyl side, *3 side chain or, on linkers, in order; H or OH if unused. Where a SMILES comes first, the peptide text is derived from it. Side-chain parts run from the residue outwards. [ ]: non-standard residue; d: D form. The star is where a group is joined. X1 = O=C(CCCCCCCCCCCCCCCc1nnn[nH]1)NS(=O)(=O)CCCC(=O)*; C20 diacid = O=C(O)CCCCCCCCCCCCCCCCCCC(=O)*; γGlu = O=C(O)[C@H](CCC(=O)[*:2])N[*:1]; βAsp = O=C(O)[C@H](CC(=O)[*:2])N[*:1]; Palmitoyl = CCCCCCCCCCCCCCCC(=O)*; 12Ado = NCCCCCCCCCCCC(=O)O; AEEA = NCCOCCOCC(=O)O; Aib = CC(C)(N)C(=O)O; Inp = O=C(O)C1CCNCC1
Experiment: Alpha-helix content by circular dichroism (CD) spectroscopy
Type: physicochemical
Conditions: for alpha-helical content: 5 uM concentration, estimated from delta epsilon at 222 nm (−1 M^−1 cm^−1 corresponds to 10%); for delta epsilon at 222 nm: 5 uM peptide in 10 mM Tris/ClO4 pH 8.0, far-UV CD

CC[C@H](C)[C@H](NC(=O)[C@H](Cc1ccccc1)NC(=O)[C@H](CCC(=O)O)NC(=O)[C@H](CCCNC(=N)N)NC(=O)[C@H](C)NC(=O)[C@H](C)NC(=O)[C@H](CCC(N)=O)NC(=O)[C@H](CCC(=O)O)NC(=O)[C@H](CCC(=O)O)NC(=O)[C@H](CCCCNC(=O)COCCOCCNC(=O)CC[C@H](NC(=O)CC[C@H](NC(=O)CCCCCCCCCCCNC(=O)CCCS(=O)(=O)NC(=O)CCCCCCCCCCCCCCCc1nnn[nH]1)C(=O)O)C(=O)O)NC(=O)[C@H](Cc1ccc(O)cc1)NC(=O)[C@H](CO)NC(=O)[C@H](CO)NC(=O)[C@@H](NC(=O)[C@H](CC(=O)O)NC(=O)[C@H](CO)NC(=O)[C@@H](NC(=O)[C@H](Cc1ccccc1)NC(=O)[C@@H](NC(=O)CNC(=O)[C@H](CCC(=O)O)NC(=O)C(C)(C)NC(=O)[C@@H](N)Cc1c[nH]cn1)[C@@H](C)O)[C@@H](C)O)C(C)C)C(=O)N[C@@H](CCC(=O)O)C(=O)N[C@@H](Cc1c[nH]c2ccccc12)C(=O)N[C@@H](CC(C)C)C(=O)N[C@H](C(=O)N[C@@H](CCCCN)C(=O)NCC(=O)N[C@@H](CCCNC(=N)N)C(=O)N1CCC[C@H]1C(N)=O)C(C)C [Example 11, N-epsilon20-[2-(2-{2-[(S)-4-Carboxy-4-((S)-4-carboxy-4-{12-[4-(16-(1H-tetrazol-5-yl)hexadecanoylsulfamoyl)butyrylamino]dodecanoylamino}butyrylamino)butyrylamino]ethoxy}ethoxy)acetyl][Aib8,Lys20,Glu22,Arg26,Glu30,Pro37]GLP-1-(7-37)amide] (H-H[Aib]EGTFTSDVSSYK([AEEA-γGlu-γGlu-12Ado-X1])EEQAAREFIEWLVKGRP-NH2)
alpha-helical content: 20-36% | delta epsilon at 222 nm: −2.0 to −3.6 M^−1 cm^−1

CC[C@H](C)[C@H](NC(=O)[C@H](Cc1ccccc1)NC(=O)[C@H](CCC(=O)O)NC(=O)[C@H](CCCNC(=N)N)NC(=O)[C@H](C)NC(=O)[C@H](C)NC(=O)[C@H](CCC(N)=O)NC(=O)[C@H](CCC(=O)O)NC(=O)[C@H](CCC(=O)O)NC(=O)[C@H](CC(C)C)NC(=O)[C@H](Cc1ccc(O)cc1)NC(=O)[C@H](CO)NC(=O)[C@H](CO)NC(=O)[C@@H](NC(=O)[C@H](CC(=O)O)NC(=O)[C@H](CO)NC(=O)[C@@H](NC(=O)[C@H](Cc1ccccc1)NC(=O)[C@@H](NC(=O)CNC(=O)[C@H](CCC(=O)O)NC(=O)[C@H](C)NC(=O)CCc1c[nH]cn1)[C@@H](C)O)[C@@H](C)O)C(C)C)C(=O)N[C@@H](C)C(=O)N[C@@H](Cc1c[nH]c2ccccc12)C(=O)N[C@@H](CC(C)C)C(=O)N[C@H](C(=O)N[C@@H](CCCNC(=N)N)C(=O)NCC(=O)N[C@@H](CCCNC(=N)N)C(=O)N[C@@H](CCCCNC(=O)COCCOCCNC(=O)COCCOCCNC(=O)CC[C@H](NC(=O)CCCCCCCCCCCCCCCCCCC(=O)O)C(=O)O)C(=O)O)C(C)C [Example 22, N-epsilon37-[2-(2-{2-[2-(2-{2-[(S)-4-Carboxy-4-(19-carboxynonadecanoylamino)butyrylamino]ethoxy}ethoxy)acetylamino]ethoxy}ethoxy)acetyl][DesaminoHis7,Glu22,Arg26,Arg34,Lys37]GLP-1-(7-37)]
alpha-helical content: 37-60% | delta epsilon at 222 nm: −3.7 to −6.0 M^−1 cm^−1

CCCCCCCCCCCCCCCC(=O)N[C@@H](CCC(=O)NCCOCCOCC(=O)NCCOCCOCC(=O)NCCCC[C@H](NC(=O)[C@H](Cc1ccc(O)cc1)NC(=O)[C@H](CO)NC(=O)[C@H](CO)NC(=O)[C@@H](NC(=O)[C@H](CC(=O)O)NC(=O)[C@H](CO)NC(=O)[C@@H](NC(=O)[C@H](Cc1ccccc1)NC(=O)[C@@H](NC(=O)CNC(=O)[C@H](CCC(=O)O)NC(=O)C(C)(C)NC(=O)[C@@H](N)Cc1c[nH]cn1)[C@@H](C)O)[C@@H](C)O)C(C)C)C(=O)N[C@@H](CCC(=O)O)C(=O)N[C@@H](CCC(=O)O)C(=O)N[C@@H](CCC(N)=O)C(=O)N[C@@H](C)C(=O)N[C@@H](C)C(=O)N[C@@H](CCCNC(=N)N)C(=O)N[C@@H](CCC(=O)O)C(=O)N[C@@H](Cc1ccccc1)C(=O)N[C@H](C(=O)N[C@@H](CCC(=O)O)C(=O)N[C@@H](Cc1c[nH]c2ccccc12)C(=O)N[C@@H](CC(C)C)C(=O)N[C@H](C(=O)N[C@@H](CCCCN)C(=O)NCC(=O)N[C@@H](CCCNC(=N)N)C(=O)N1CCC[C@H]1C(N)=O)C(C)C)[C@@H](C)CC)C(=O)O [Example 24, N-epsilon20-(2-{2-[2-(2-{2-[2-((S)-4-Carboxy-4-hexadecanoylamino-butyrylamino)ethoxy]ethoxy}acetylamino)ethoxy]ethoxy}-acetyl)[Aib8,Lys20,Glu22,Arg26,Glu30,Pro37]GLP-1-(7-37)amide] (H-H[Aib]EGTFTSDVSSYK([AEEA-AEEA-γGlu-Palmitoyl])EEQAAREFIEWLVKGRP-NH2)
alpha-helical content: 37-60% | delta epsilon at 222 nm: −3.7 to −6.0 M^−1 cm^−1

CCCCCCCCCCCCCCCC(=O)N[C@@H](CCC(=O)NCCCC[C@H](NC(=O)[C@H](C)NC(=O)[C@H](C)NC(=O)[C@H](CCC(N)=O)NC(=O)CNC(=O)[C@H](CCC(=O)O)NC(=O)[C@H](CC(C)C)NC(=O)[C@H](Cc1ccc(O)cc1)NC(=O)[C@H](CO)NC(=O)[C@H](CO)NC(=O)[C@@H](NC(=O)[C@H](CC(=O)O)NC(=O)[C@H](CO)NC(=O)[C@@H](NC(=O)[C@H](Cc1ccccc1)NC(=O)[C@@H](NC(=O)CNC(=O)[C@H](CCC(=O)O)NC(=O)[C@H](C)NC(=O)[C@@H](N)Cc1cnc[nH]1)[C@@H](C)O)[C@@H](C)O)C(C)C)C(=O)N[C@@H](CCC(=O)O)C(=O)N[C@@H](Cc1ccccc1)C(=O)N[C@H](C(=O)N[C@@H](C)C(=O)N[C@@H](Cc1c[nH]c2ccccc12)C(=O)N[C@@H](CC(C)C)C(=O)N[C@H](C(=O)N[C@@H](CCCNC(=N)N)C(=O)NCC(=O)N[C@@H](CCCNC(=N)N)C(=O)NCC(=O)O)C(C)C)[C@@H](C)CC)C(=O)O [Liraglutide, reference compound]
alpha-helical content: below 36% | delta epsilon at 222 nm: below −3.6 M^−1 cm^−1

CC[C@H](C)[C@H](NC(=O)[C@H](Cc1ccccc1)NC(=O)[C@H](CCC(=O)O)NC(=O)[C@H](CCCNC(=N)N)NC(=O)[C@H](C)NC(=O)[C@H](C)NC(=O)[C@H](CCC(N)=O)NC(=O)[C@H](CCC(=O)O)NC(=O)[C@H](CCC(=O)O)NC(=O)[C@H](CC(C)C)NC(=O)[C@H](Cc1ccc(O)cc1)NC(=O)[C@H](CO)NC(=O)[C@H](CO)NC(=O)[C@@H](NC(=O)[C@H](CC(=O)O)NC(=O)[C@H](CO)NC(=O)[C@@H](NC(=O)[C@H](Cc1ccccc1)NC(=O)[C@@H](NC(=O)CNC(=O)[C@H](CCC(=O)O)NC(=O)C(C)(C)NC(=O)[C@@H](N)Cc1c[nH]cn1)[C@@H](C)O)[C@@H](C)O)C(C)C)C(=O)N[C@@H](CCCCNC(=O)COCCOCCNC(=O)COCCOCCNC(=O)C[C@H](NC(=O)C1CCN(C(=O)CCCCCCCCCCCCCCCCCCC(=O)O)CC1)C(=O)O)C(=O)N[C@@H](Cc1c[nH]c2ccccc12)C(=O)N[C@@H](CC(C)C)C(=O)N[C@H](C(=O)N[C@@H](CCCCN)C(=O)NCC(=O)N[C@@H](CCCNC(=N)N)C(=O)NCC(=O)O)C(C)C [Example 4, N-epsilon30{2-[2-(2-{2-[2-((S)-3-carboxy-3-{[1-(19-carboxynonadecanoyl)piperidine-4-carbonyl]amino}propionylamino)ethoxy]ethoxy}acetylamino)ethoxy]ethoxy}acetyl [Aib8,Glu22,Arg26,Lys30]GLP-1-(7-37)]
alpha-helical content: 20-36% | delta epsilon at 222 nm: −2.0 to −3.6 M^−1 cm^−1

CC[C@H](C)[C@H](NC(=O)[C@H](Cc1ccccc1)NC(=O)[C@H](CCC(=O)O)NC(=O)[C@H](CCCNC(=N)N)NC(=O)[C@H](C)NC(=O)[C@H](C)NC(=O)[C@H](CCC(N)=O)NC(=O)[C@H](CCC(=O)O)NC(=O)[C@H](CCC(=O)O)NC(=O)[C@H](CC(C)C)NC(=O)[C@H](Cc1ccc(O)cc1)NC(=O)[C@H](CO)NC(=O)[C@H](CO)NC(=O)[C@@H](NC(=O)[C@H](CC(=O)O)NC(=O)[C@H](CO)NC(=O)[C@@H](NC(=O)[C@H](Cc1ccccc1)NC(=O)[C@@H](NC(=O)CNC(=O)[C@H](CCC(=O)O)NC(=O)[C@H](C)NC(=O)CCc1c[nH]cn1)[C@@H](C)O)[C@@H](C)O)C(C)C)C(=O)N[C@@H](C)C(=O)N[C@@H](Cc1c[nH]c2ccccc12)C(=O)N[C@@H](CC(C)C)C(=O)N[C@H](C(=O)N[C@@H](CCCNC(=N)N)C(=O)NCC(=O)N[C@@H](CCCNC(=N)N)C(=O)N[C@@H](CCCCNC(=O)COCCOCCNC(=O)COCCOCCNC(=O)CC[C@H](NC(=O)[C@H]1CC[C@H](CNC(=O)CCCCCCCCCCCCCCCCCCC(=O)O)CC1)C(=O)O)C(=O)O)C(C)C [Example 9, N-epsilon37-[2-(2-{2-[2-(2-{2-[(S)-4-Carboxy-4-({trans-4-[(19-carboxy-nonadecanoylamino)methyl]cyclohexanecarbonyl}amino)butyrylamino]ethoxy}ethoxy)acetylamino]ethoxy}ethoxy)acetyl][DesaminoHis7,Glu22,Arg26,Arg34,Lys37]GLP-1-(7-37)]
alpha-helical content: 37-60% | delta epsilon at 222 nm: −3.7 to −6.0 M^−1 cm^−1

CC[C@H](C)[C@H](NC(=O)[C@H](Cc1ccccc1)NC(=O)[C@H](CCC(=O)O)NC(=O)[C@H](CCCNC(=N)N)NC(=O)[C@H](C)NC(=O)[C@H](C)NC(=O)[C@H](CCC(N)=O)NC(=O)[C@H](CCC(=O)O)NC(=O)[C@H](CCC(=O)O)NC(=O)[C@H](CC(C)C)NC(=O)[C@H](Cc1ccc(O)cc1)NC(=O)[C@H](CO)NC(=O)[C@H](CO)NC(=O)[C@@H](NC(=O)[C@H](CC(=O)O)NC(=O)[C@H](CO)NC(=O)[C@@H](NC(=O)[C@H](Cc1ccccc1)NC(=O)[C@@H](NC(=O)CNC(=O)[C@H](CCC(=O)O)NC(=O)C(C)(C)NC(=O)[C@@H](N)Cc1c[nH]cn1)[C@@H](C)O)[C@@H](C)O)C(C)C)C(=O)N[C@@H](C)C(=O)N[C@@H](CCCCNC(=O)COCCOCCNC(=O)COCCOCCNC(=O)C[C@H](NC(=O)C1CCN(C(=O)CCCCCCCCCCCCCCCCCCC(=O)O)CC1)C(=O)O)C(=O)N[C@@H](CC(C)C)C(=O)N[C@H](C(=O)N[C@@H](CCCCN)C(=O)NCC(=O)N[C@@H](CCCNC(=N)N)C(=O)NCC(=O)O)C(C)C [Example 5, N-epsilon31{2-[2-(2-{2-[2-((S)-3-carboxy-3-{[1-(19-carboxynonadecanoyl)piperidine-4-carbonyl]amino}propionylamino)ethoxy]ethoxy}acetylamino)ethoxy]ethoxy}acetyl [Aib8,Glu22,Arg26,Lys31]GLP-1-(7-37)] (H-H[Aib]EGTFTSDVSSYLEEQAAREFIAK([AEEA-AEEA-βAsp-Inp-C20 diacid])LVKGRG-OH)
alpha-helical content: 20-36% | delta epsilon at 222 nm: −2.0 to −3.6 M^−1 cm^−1

From patent US9409966B2, “Glucagon-like peptide-1 derivatives and their pharmaceutical use” (priority 2007, dated 2016)
